Experimental findings from patent US20230174610A1 (Harvard, published 2023) are described below.

First the molecules themselves.
T1: RXFP1 with an N-terminal FLAG tag, transiently transfected in Expi293F cells (UniProt Q9HBX9 1-757, limits assumed)
T1 construct: whole, on cells; not shown: N-terminal FLAG tag
T1 sequence (looked up): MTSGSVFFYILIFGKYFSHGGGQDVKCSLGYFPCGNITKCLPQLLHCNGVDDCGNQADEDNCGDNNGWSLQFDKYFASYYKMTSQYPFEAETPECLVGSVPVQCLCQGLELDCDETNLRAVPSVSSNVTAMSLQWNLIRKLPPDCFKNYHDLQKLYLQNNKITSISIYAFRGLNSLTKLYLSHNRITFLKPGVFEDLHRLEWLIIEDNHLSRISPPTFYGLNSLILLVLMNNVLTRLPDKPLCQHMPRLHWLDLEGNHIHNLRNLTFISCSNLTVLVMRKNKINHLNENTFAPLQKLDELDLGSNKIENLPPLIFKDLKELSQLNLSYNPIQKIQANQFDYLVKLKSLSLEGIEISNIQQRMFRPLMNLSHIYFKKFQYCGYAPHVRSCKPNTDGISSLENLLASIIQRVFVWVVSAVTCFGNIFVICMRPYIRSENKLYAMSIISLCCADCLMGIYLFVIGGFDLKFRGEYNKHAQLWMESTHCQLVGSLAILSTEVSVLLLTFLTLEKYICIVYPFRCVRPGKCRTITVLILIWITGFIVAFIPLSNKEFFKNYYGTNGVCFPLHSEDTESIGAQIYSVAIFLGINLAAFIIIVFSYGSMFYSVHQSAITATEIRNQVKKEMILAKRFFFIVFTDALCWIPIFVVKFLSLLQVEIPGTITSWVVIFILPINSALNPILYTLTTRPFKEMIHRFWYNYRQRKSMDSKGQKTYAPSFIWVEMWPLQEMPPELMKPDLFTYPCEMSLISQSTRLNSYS

T2: RXFP1 receptor expressed by transient transfection in HEK293T cells (UniProt Q9HBX9 1-757, limits assumed)
T2 sequence (looked up): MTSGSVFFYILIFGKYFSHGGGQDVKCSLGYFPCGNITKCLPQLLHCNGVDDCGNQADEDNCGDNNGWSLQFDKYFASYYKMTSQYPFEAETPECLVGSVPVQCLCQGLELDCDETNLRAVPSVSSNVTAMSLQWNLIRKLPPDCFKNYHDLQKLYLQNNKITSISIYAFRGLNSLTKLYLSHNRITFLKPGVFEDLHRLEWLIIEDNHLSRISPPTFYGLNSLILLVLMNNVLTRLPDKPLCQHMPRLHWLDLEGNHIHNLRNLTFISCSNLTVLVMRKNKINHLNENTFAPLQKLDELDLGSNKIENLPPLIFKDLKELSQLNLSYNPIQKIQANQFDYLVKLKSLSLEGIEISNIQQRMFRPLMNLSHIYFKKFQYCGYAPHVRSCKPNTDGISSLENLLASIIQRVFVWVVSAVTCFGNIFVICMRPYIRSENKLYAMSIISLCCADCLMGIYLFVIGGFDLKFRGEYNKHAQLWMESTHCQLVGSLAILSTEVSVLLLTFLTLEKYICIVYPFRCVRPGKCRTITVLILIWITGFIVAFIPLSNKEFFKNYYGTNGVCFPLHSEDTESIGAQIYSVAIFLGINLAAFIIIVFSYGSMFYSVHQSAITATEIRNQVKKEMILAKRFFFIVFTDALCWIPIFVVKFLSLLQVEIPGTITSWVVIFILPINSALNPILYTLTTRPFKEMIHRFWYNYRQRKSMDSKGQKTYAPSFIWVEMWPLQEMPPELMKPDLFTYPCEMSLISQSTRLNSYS

B1: SE301, Single-chain relaxin fused to the C-terminus of human IgG1 Fc with combined substitutions of SE201, SE204-207 (Fc fusion)
chain: [not shown - human IgG1 Fc with changes]GGSDSWKEEVIKLCGRELVRAQIAICGKSTASDAAGANANAGARQLYSALANKCCHVGCTKRSLARFC
B2: SE101, Single-chain relaxin fused to the N-terminus of human IgG1 Fc (Fc fusion)
chain: DSWMEEVIKLCGRELVRAQIAICGMSTWSDAASSHSHSSARQLYSALANKCCHVGCTKRSLARFCGSGGSG[not shown - human IgG1 Fc]
B3: SE102, Single-chain relaxin fused to the C-terminus of human IgG1 Fc v.1 (short linker) (Fc fusion)
chain: [not shown - human IgG1 Fc]GGSDSWMEEVIKLCGRELVRAQIAICGMSTWSDAASSHSHSSARQLYSALANKCCHVGCTKRSLARFC
B4: SE302, Single-chain relaxin fused to the C-terminus of human IgG1 Fc with combined substitutions of SE201, 204-207 and no linker between the Fc and … (Fc fusion)
chain: [not shown - human IgG1 Fc with changes]DSWKEEVIKLCGRELVRAQIAICGKSTASDAAGANANAGARQLYSALANKCCHVGCTKRSLARFC
B5: SE201, Single-chain relaxin fused to the C-terminus of human IgG1 Fc v.1 with N77Q Fc substitution (Fc fusion)
chain: [not shown - human IgG1 Fc with changes]GGSDSWMEEVIKLCGRELVRAQIAICGMSTWSDAASSHSHSSARQLYSALANKCCHVGCTKRSLARFC
B6: SE205, Single-chain relaxin fused to the C-terminus of human IgG1 Fc v.1 with N77Q Fc substitution and M25K relaxin substitution (Fc fusion)
chain: [not shown - human IgG1 Fc with changes]GGSDSWMEEVIKLCGRELVRAQIAICGKSTWSDAASSHSHSSARQLYSALANKCCHVGCTKRSLARFC
B7: SE203, Single-chain relaxin fused to the C-terminus of human IgG1 Fc v.1 with N77Q Fc substitution and PPP linker between relaxin and the Fc (Fc fusion)
chain: [not shown - human IgG1 Fc with changes]PPPDSWMEEVIKLCGRELVRAQIAICGMSTWSDAASSHSHSSARQLYSALANKCCHVGCTKRSLARFC
B8: SE202, Single-chain relaxin fused to the C-terminus of human IgG1 Fc v.1 with N77Q Fc substitution and AAA linker between relaxin and the Fc (Fc fusion)
chain: [not shown - human IgG1 Fc with changes]AAADSWMEEVIKLCGRELVRAQIAICGMSTWSDAASSHSHSSARQLYSALANKCCHVGCTKRSLARFC
B9: SE206, Single-chain relaxin fused to the C-terminus of human IgG1 Fc v.1 with N77Q Fc substitution and W28A relaxin substitution (Fc fusion)
chain: [not shown - human IgG1 Fc with changes]GGSDSWMEEVIKLCGRELVRAQIAICGMSTASDAASSHSHSSARQLYSALANKCCHVGCTKRSLARFC
B10: SE204, Single-chain relaxin fused to the C-terminus of human IgG1 Fc v.1 with N77Q Fc substitution and M4K relaxin substitution (Fc fusion)
chain: [not shown - human IgG1 Fc with changes]GGSDSWKEEVIKLCGRELVRAQIAICGMSTWSDAASSHSHSSARQLYSALANKCCHVGCTKRSLARFC
B11: SE207, Single-chain relaxin fused to the C-terminus of human IgG1 Fc v.1 with N77Q Fc substitution and redesigned single-chain relaxin linker (Fc fusion)
chain: [not shown - human IgG1 Fc with changes]GGSDSWMEEVIKLCGRELVRAQIAICGMSTWSDAAGANANAGARQLYSALANKCCHVGCTKRSLARFC
B12: SE103, Single-chain relaxin fused to the C-terminus of human IgG1 Fc v.2 (long linker) (Fc fusion)
chain: [not shown - human IgG1 Fc]GGSGGSGGSGGSDSWMEEVIKLCGRELVRAQIAICGMSTWSDAASSHSHSSARQLYSALANKCCHVGCTKRSLARFC
B13: SE501, Single-chain relaxin fused to the C-terminus of human IgG1 Fc with combined substitutions of SE301 and A264S (Fc fusion)
chain: [not shown - human IgG1 Fc with changes]GGSDSWKEEVIKLCGRELVRSQIAICGKSTASDAAGANANAGARQLYSALANKCCHVGCTKRSLARFC
B14: SE502, Single-chain relaxin fused to the C-terminus of human IgG1 Fc with combined substitutions of SE301 and A264G (Fc fusion)
chain: [not shown - human IgG1 Fc with changes]GGSDSWKEEVIKLCGRELVRGQIAICGKSTASDAAGANANAGARQLYSALANKCCHVGCTKRSLARFC

For the first assay, the target named is T1, RXFP1 with an N-terminal FLAG tag, …. The experiment in a line: flow cytometry on Expi293F cells transiently transfected with N-terminal FLAG-tagged RXFP1; detection with anti-human Fc-Alexa 647, MFI against SE301 concentration. As for the experimental part: The binding affinity of SE301 was determined by a flow cytometry assay with Expi293F cells transiently transfected with either RXFP1 with an N-terminal FLAG tag or empty vector plasmids. Cell culture and transfection were conducted according to the manufacturer's manual. Cells transfected with RXFP1 or the empty vector control were incubated in a buffer of 20 mM HEPES pH 7.5, 150 mM sodium chloride, 2 mM calcium chloride, and 1% fetal bovine serum for 30 minutes at 4° C. Different concentrations of SE301 were added to the cells and incubated for 1 hour at 4° C. Cells were washed twice with buffer and an M1 antibody labeled with Alexa 488 (M1-488) and a secondary anti-human Fc antibody labeled with Alexa 647 (anti-human Fc-647) were incubated with the cells for 30 minutes at 4° C. The cells were washed once, resuspended in 100 μL buffer, and analyzed by flow cytometry. The cells were gated by forward scatter area versus side scatter area and forward scatter area versus forward scatter height. The cells were then gated according to receptor expression indicated by binding of the M1-488 antibody to the receptor's FLAG tag. Cells in the final gate were plotted according to mean fluorescence intensity of the anti-human Fc-647 antibody to calculate the Kd of SE301.
On the technique in general: Flow cytometry measures light scatter and fluorescence of single cells or particles in a stream.
As a reminder, the Kd is the equilibrium constant for the complex coming apart. As to B1, the Kd turned out to be 122 nM.

For a further assay, the target named is T2, RXFP1 receptor expressed by transient …. Put plainly: cell-based or functional assay.
The EC50 is the concentration that produces a half-maximal response. Regarding B2, the EC50 came to 49.4 nM and the “Emax (Native two-chain relaxin = 100% Emax)” value came to 86%.
For B3 the same measures were 8.3 nM and 106%.
For the molecule B4, a half-maximal response (EC50) required 4.9 nM and the “Emax (Native two-chain relaxin = 100% Emax)” value amounted to 81%.
Regarding B5, the EC50 amounted to 3.9 nM and the “Emax (Native two-chain relaxin = 100% Emax)” value is 102%.
For B6, the EC50 was 465 nM and the “Emax (Native two-chain relaxin = 100% Emax)” value is 130%.
For B7, in that order: 6.3 nM and 121%.
B8: the concentration for a half-maximal effect (EC50) was determined as 4.2 nM and the “Emax (Native two-chain relaxin = 100% Emax)” value turned out to be 109%.
B1: the response was half-maximal at 4.2 nM (EC50) and the “Emax (Native two-chain relaxin = 100% Emax)” value was determined as 114%.
For B9, the EC50 is 3 nM and the “Emax (Native two-chain relaxin = 100% Emax)” value was determined as 135%.
Take B10: the concentration giving a half-maximal response (EC50) is 1.5 nM and the “Emax (Native two-chain relaxin = 100% Emax)” value came out at 115%.
For the molecule B11, the concentration for a half-maximal effect (EC50) was 3.9 nM and the “Emax (Native two-chain relaxin = 100% Emax)” value is 121%.
For B12 the same measures were 17.9 nM and 93%.

The target is the same in another assay. Put plainly: cell-based or functional assay. The source holds these as a separate data set.
In the case of B13, the midpoint of the response, the EC50, lay at 9.7 nM.
Same read-out and setting: as for B14, the figure is 38.6 nM.
